{"source": "the supplement of paper PMC8728848", "binders": {"B1": {"name": "MGL (Homo sapiens), Q8IUN9 (protein)", "chain": "MTRTYENFQYLENKVKVQGFKNGPLPLQSLLQRLCSGPCHLLLSLGLGLLLLVIICVVGFQNSKFQRDLVTLRTDFSNFTSNTVAEIQALTSQGSSLEETIASLKAEVEGFKQERQAGVSELQEHTTQKAHLGHCPHCPSVCVPVHSEMLLRVQQLVQDLKKLTCQVATLNNNASTEGTCCPVNWVEHQDSCYWFSHSGMSWAEAEKYCQLKNAHLVVINSREEQNFVQKYLGSAYTWMGLSDPEGAWKWVDGTDYATGFQNWKPGQPDDWQGHGLGGGEDCAHFHPDGRWNDDVCQRPYHWVCEAGLGQTSQESH"}}, "assay_in_all_cases": "glycan array binding signal (z-score within array); higher = stronger binding", "conditions_in_all_cases": "glycan notation: IUPAC condensed, linker removed", "key": {"[1]": {"biological_target": "GlcNAc(a1-6)Gal(b1-4)GlcNAc", "in_short": "(§1)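 From the Consortium for Functional Glycomics database, 3228 arrays were curated, keeping only those whose protein sequence was available. Binding is given as a within-array Z-score averaged across arrays sharing a protein sequence and across linkers. Negative Z-scores can be read as non-binding.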"}, "[2]": {"biological_target": "GlcNAc(b1-2)Gal(b1-3)GalNAc", "in_short": "as §1"}, "[3]": {"biological_target": "GlcNAc(b1-2)Man(a1-3)[GlcNAc(b1-2)Man(a1-6)]Man(b1-4)GlcNAc(b1-4)GlcNAc", "in_short": "as §1"}, "[4]": {"biological_target": "GlcNAc(b1-2)Man(a1-3)[GlcNAc(b1-2)Man(a1-6)]Man(b1-4)GlcNAc(b1-4)[Fuc(a1-6)]GlcNAc", "in_short": "as §1"}, "[5]": {"biological_target": "GlcNAc(b1-2)Man(a1-3)[GlcNAc(b1-4)][GlcNAc(b1-2)Man(a1-6)]Man(b1-4)GlcNAc(b1-4)GlcNAc", "in_short": "as §1"}, "[6]": {"biological_target": "GlcNAc(b1-2)Man(a1-3)[GlcNAc(b1-4)][GlcNAc(b1-2)Man(a1-6)]Man(b1-4)GlcNAc(b1-4)[Fuc(a1-6)]GlcNAc", "in_short": "as §1"}, "[7]": {"biological_target": "GlcNAc(b1-2)[GlcNAc(b1-4)]Man(a1-3)[GlcNAc(b1-2)Man(a1-6)]Man(b1-4)GlcNAc(b1-4)GlcNAc", "in_short": "as §1"}, "[8]": {"biological_target": "GlcNAc(b1-2)[GlcNAc(b1-4)]Man(a1-3)[GlcNAc(b1-4)][GlcNAc(b1-2)Man(a1-6)]Man(b1-4)GlcNAc(b1-4)GlcNAc", "in_short": "as §1"}, "[9]": {"biological_target": "GlcNAc(b1-2)[GlcNAc(b1-4)]Man(a1-3)[GlcNAc(b1-4)][GlcNAc(b1-2)[GlcNAc(b1-6)]Man(a1-6)]Man(b1-4)GlcNAc(b1-4)GlcNAc", "in_short": "as §1"}, "[10]": {"biological_target": "GlcNAc(b1-2)[GlcNAc(b1-4)]Man(a1-3)[GlcNAc(b1-4)][GlcNAc(b1-2)[GlcNAc(b1-6)]Man(a1-6)]Man(b1-4)GlcNAc(b1-4)[Fuc(a1-6)]GlcNAc", "in_short": "as §1"}, "[11]": {"biological_target": "GlcNAc(b1-2)[GlcNAc(b1-6)]Man(a1-6)[GlcNAc(b1-2)Man(a1-3)]Man(b1-4)GlcNAc(b1-4)GlcNAc", "in_short": "as §1"}, "[12]": {"biological_target": "GlcNAc(b1-2)[GlcNAc(b1-6)]Man(a1-6)[GlcNAc(b1-2)Man(a1-3)]Man(b1-4)GlcNAc(b1-4)[Fuc(a1-6)]GlcNAc", "in_short": "as §1"}, "[13]": {"biological_target": "GlcNAc(b1-2)[GlcNAc(b1-6)]Man(a1-6)[GlcNAc(b1-4)][GlcNAc(b1-2)Man(a1-3)]Man(b1-4)GlcNAc(b1-4)GlcNAc", "in_short": "as §1"}, "[14]": {"biological_target": "GlcNAc(b1-3)Fuc", "in_short": "as §1"}, "[15]": {"biological_target": "GlcNAc(b1-3)Gal", "in_short": "as §1"}, "[16]": {"biological_target": "GlcNAc(b1-3)Gal(b1-3)GalNAc", "in_short": "as §1"}, "[17]": {"biological_target": "GlcNAc(b1-3)Gal(b1-4)Glc", "in_short": "as §1"}, "[18]": {"biological_target": "GlcNAc(b1-3)Gal(b1-4)GlcNAc", "in_short": "as §1"}}, "note": "The list shows a part of the results.", "data": [{"binder": "B1", "values": [{"measurement": "glycan array binding signal (z-score)", "setting": "[1]", "value": -0.233}, {"measurement": "glycan array binding signal (z-score)", "setting": "[2]", "value": -0.243}, {"measurement": "glycan array binding signal (z-score)", "setting": "[3]", "value": -0.245}, {"measurement": "glycan array binding signal (z-score)", "setting": "[4]", "value": -0.242}, {"measurement": "glycan array binding signal (z-score)", "setting": "[5]", "value": -0.25}, {"measurement": "glycan array binding signal (z-score)", "setting": "[6]", "value": -0.241}, {"measurement": "glycan array binding signal (z-score)", "setting": "[7]", "value": -0.251}, {"measurement": "glycan array binding signal (z-score)", "setting": "[8]", "value": -0.249}, {"measurement": "glycan array binding signal (z-score)", "setting": "[9]", "value": -0.246}, {"measurement": "glycan array binding signal (z-score)", "setting": "[10]", "value": -0.238}, {"measurement": "glycan array binding signal (z-score)", "setting": "[11]", "value": -0.24}, {"measurement": "glycan array binding signal (z-score)", "setting": "[12]", "value": -0.249}, {"measurement": "glycan array binding signal (z-score)", "setting": "[13]", "value": -0.246}, {"measurement": "glycan array binding signal (z-score)", "setting": "[14]", "value": -0.24}, {"measurement": "glycan array binding signal (z-score)", "setting": "[15]", "value": -0.248}, {"measurement": "glycan array binding signal (z-score)", "setting": "[16]", "value": -0.232}, {"measurement": "glycan array binding signal (z-score)", "setting": "[17]", "value": -0.24}, {"measurement": "glycan array binding signal (z-score)", "setting": "[18]", "value": -0.32}]}]}
